Some of the results follow. Interaction screen of human proteins with wild-type SARS-CoV-2 proteins by split-DHFR complementation in yeast, 1 µg/mL methotrexate. Value = fitness of the pair (three or more lineages) minus that of the viral protein without a human partner, on a scale set by negative (0) and fused positive (1) controls, mean of up to three cultures; higher = more likely to interact. Active = false discovery rate below 0.05 (one-sided t-test) in at least one culture. Nearly all pairs are not hits, and differences among them are mostly noise (correlation between cultures about 0.3); most hits were seen in one culture only. Human sequences are the Swiss-Prot entries looked up by gene name; the clone may be another isoform. NSP2 values were corrected by the authors for a growth advantage. Listed are human proteins with a hit and a random twelfth of the others.
B1: AGBL2, Q5U5Z8 (protein)
chain: MFPALETHLKQTIPDPYEDFMYRHLQYYGYFKAQRGSLPNSATHQHVRKNNPQCLLNGSLGEKDDLIPDTLQKEKLLWPISLSSAVHRQIEAINRDFHSCLGWMQWRGLSSLQPPPPRFKDSPASAFRVAGITDSHMLSLPHLRSRQLLYDELDEVNPRLREPQELFSILSTKRPLQAPRWPIECEVIKENIHHIEWAPPQPEYFYQPKGNEKVPEIVGEKKGTVVYQLDSVPIEGSYFTSSRVGGKRGIVKELAVTLQGPEDNTLLFESRFESGNLQKAVRVDTYEYELTLRTDLYTNKHTQWFYFRVQNTRKDATYRFTIVNLLKPKSLYTVGMKPLLYSQLDANTRNIGWRREGNEIKYYKNNTDDGQQPFYCLTWTIQFPYDQDTCFFAHFYPYTYTDLQCYLLSVANNPIQSQFCKLQTLCRSLAGNTVYLLTITNPSQTPQEAAAKKAVVLSARVHPGESNGSWVMKGFLDFILSNSPDAQLLRDIFVFKVLPMLNPDGVIVGNYRCSLAGRDLNRHYKTILKESFPCIWYTRNMIKRLLEEREVLLYCDFHGHSRKNNIFLYGCNNNNRKYWLHERVFPLMLCKNAPDKFSFHSCNFKVQKCKEGTGRVVMWRMGILNSYTMESTFGGSTLGNKRDTHFTIEDLKSLGYHVCDTLLDFCDPDQMKFTQCLAELKELLRQEIHKKFHELGQDVDLEGSWSDISLSDIESSTSGSDSSLSDGLPVHLANIADELTQKKKMFKKKKKKSLQTRKQRNEQYQKKNLMQKLKLTEDTSEKAGFASTLQKQPTFFKNSENSSFLPMKNENPRLNETNLNRRDKDTPLDPSMATLILPKNKGRMQNKKPGFTVSCSPKRTINSSQEPAPGMKPNWPRSRYPATKRGCAAMAAYPSLHIYTYP
B2: AMBP, P02760 (protein)
chain: MRSLGALLLLLSACLAVSAGPVPTPPDNIQVQENFNISRIYGKWYNLAIGSTCPWLKKIMDRMTVSTLVLGEGATEAEISMTSTRWRKGVCEETSGAYEKTDTDGKFLYHKSKWNITMESYVVHTNYDEYAIFLTKKFSRHHGPTITAKLYGRAPQLRETLLQDFRVVAQGVGIPEDSIFTMADRGECVPGEQEPEPILIPRVRRAVLPQEEEGSGGGQLVTEVTKKEDSCQLGYSAGPCMGMTSRYFYNGTSMACETFQYGGCMGNGNNFVTEKECLQTCRTVAACNLPIVRGPCRAFIQLWAFDAVKGKCVLFPYGGCQGNGNKFYSEKECREYCGVPGDGDEELLRFSN
B3: AMTN, Q6UX39 (protein)
chain: MRSTILLFCLLGSTRSLPQLKPALGLPPTKLAPDQGTLPNQQQSNQVFPSLSLIPLTQMLTLGPDLHLLNPAAGMTPGTQTHPLTLGGLNVQQQLHPHVLPIFVTQLGAQGTILSSEELPQIFTSLIIHSLFPGGILPTSQAGANPDVQDGSLPAGGAGVNPATQGTPAGRLPTPSGTDDDFAVTTPAGIQRSTHAIEEATTESANGIQ
B4: AMY2A, P04746 (protein)
chain: MKFFLLLFTIGFCWAQYSPNTQQGRTSIVHLFEWRWVDIALECERYLAPKGFGGVQVSPPNENVAIYNPFRPWWERYQPVSYKLCTRSGNEDEFRNMVTRCNNVGVRIYVDAVINHMCGNAVSAGTSSTCGSYFNPGSRDFPAVPYSGWDFNDGKCKTGSGDIENYNDATQVRDCRLTGLLDLALEKDYVRSKIAEYMNHLIDIGVAGFRLDASKHMWPGDIKAILDKLHNLNSNWFPAGSKPFIYQEVIDLGGEPIKSSDYFGNGRVTEFKYGAKLGTVIRKWNGEKMSYLKNWGEGWGFVPSDRALVFVDNHDNQRGHGAGGASILTFWDARLYKMAVGFMLAHPYGFTRVMSSYRWPRQFQNGNDVNDWVGPPNNNGVIKEVTINPDTTCGNDWVCEHRWRQIRNMVIFRNVVDGQPFTNWYDNGSNQVAFGRGNRGFIVFNNDDWSFSLTLQTGLPAGTYCDVISGDKINGNCTGIKIYVSDDGKAHFSISNSAEDPFIAIHAESKL

molecular target: SARS-CoV-2 M; assay: yeast fitness gain over the viral ORF with no human partner (scaled fitness); higher = more likely to interact
Protocol: (§1)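 Split mouse DHFR complementation in pooled diploid yeast: human ORFeome clones carry one fragment and viral ORFs the other; barcoded lineages compete in 1 µg/mL methotrexate and fitness is read by barcode sequencing in up to three cultures.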

Binder | yeast fitness gain
B1 | inactive: 0.029
B2 | inactive: 0.0632
B3 | inactive: 0.0493
B4 | inactive: 0.0597

molecular target: SARS-CoV-2 NSP1; assay: as above
Protocol: as §1

Binder | yeast fitness gain
B1 | inactive: -0.0385
B2 | inactive: -0.0908
B3 | inactive: 0.0789
B4 | inactive: 0.0862

molecular target: SARS-CoV-2 NSP10; assay: as above
Protocol: as §1

Binder | yeast fitness gain
B1 | inactive: -0.0302
B2 | inactive: -0.142
B3 | inactive: -0.0834
B4 | inactive: 0.042

molecular target: SARS-CoV-2 NSP12; assay: as above
Protocol: as §1

Binder | yeast fitness gain
B1 | inactive: 0.0434
B2 | inactive: -0.0325
B3 | inactive: -0.00713
B4 | inactive: 0.0676

molecular target: SARS-CoV-2 NSP13; assay: as above
Protocol: as §1

Binder | yeast fitness gain
B1 | inactive: -0.0142
B2 | inactive: 0.00907
B3 | inactive: -0.0571
B4 | inactive: 0.106

molecular target: SARS-CoV-2 NSP15; assay: as above
Protocol: as §1

Binder | yeast fitness gain
B1 | inactive: 0.105
B2 | inactive: -0.00422
B4 | inactive: -0.475

molecular target: SARS-CoV-2 NSP16; assay: as above
Protocol: as §1

Binder | yeast fitness gain
B1 | inactive: -0.0874
B2 | inactive: 0.093
B3 | inactive: 0.0435
B4 | inactive: 0.102

molecular target: SARS-CoV-2 NSP2; assay: as above
Protocol: as §1

Binder | yeast fitness gain
B1 | inactive: -0.152
B2 | inactive: -0.108
B3 | inactive: -0.25
B4 | inactive: -0.0695

molecular target: SARS-CoV-2 NSP5; assay: as above
Protocol: as §1

Binder | yeast fitness gain
B1 | inactive: 0.0144
B2 | inactive: -0.0338
B3 | inactive: -0.0133
B4 | inactive: 0.026

molecular target: SARS-CoV-2 NSP6; assay: as above
Protocol: as §1

Binder | yeast fitness gain
B1 | inactive: -0.0793
B2 | inactive: -0.0924
B3 | inactive: 0.107
B4 | inactive: 0.0252

molecular target: SARS-CoV-2 NSP7; assay: as above
Protocol: as §1

Binder | yeast fitness gain
B1 | inactive: -0.0362
B2 | inactive: 0.0208
B3 | inactive: 0.0919
B4 | inactive: 0.0212

molecular target: SARS-CoV-2 NSP8; assay: as above
Protocol: as §1

Binder | yeast fitness gain
B1 | inactive: 0.0381
B2 | inactive: 0.00916
B3 | inactive: -0.0641
B4 | inactive: 0.0969

molecular target: SARS-CoV-2 NSP9; assay: as above
Protocol: as §1

Binder | yeast fitness gain
B1 | inactive: -0.05
B2 | inactive: 0.0679
B3 | inactive: -0.0718
B4 | inactive: 0.0778

molecular target: SARS-CoV-2 ORF10; assay: as above
Protocol: as §1

Binder | yeast fitness gain
B1 | inactive: 0.0117
B2 | inactive: -0.0263
B3 | inactive: 0.0333
B4 | inactive: 0.0143

molecular target: SARS-CoV-2 ORF3B; assay: as above
Protocol: as §1

Binder | yeast fitness gain
B1 | inactive: 0.0057
B2 | inactive: 0.0243
B3 | inactive: -0.0312
B4 | inactive: 0.0706

molecular target: SARS-CoV-2 ORF6; assay: as above
Protocol: as §1

Binder | yeast fitness gain
B1 | inactive: -0.0649
B2 | inactive: -0.00802
B3 | inactive: 0.0602
B4 | inactive: -0.0118

molecular target: SARS-CoV-2 ORF7A; assay: as above
Protocol: as §1

Binder | yeast fitness gain
B1 | inactive: -0.263
B2 | inactive: 0.0249
B3 | inactive: -0.0556
B4 | inactive: 0.0569

molecular target: SARS-CoV-2 ORF7B; assay: as above
Protocol: as §1

Binder | yeast fitness gain
B1 | inactive: 0.0708
B2 | inactive: -0.14
B3 | inactive: 0.125
B4 | inactive: 0.0842

molecular target: SARS-CoV-2 ORF8; assay: as above
Protocol: as §1

Binder | yeast fitness gain
B1 | inactive: 0.064
B2 | inactive: 0.028
B3 | inactive: 0.0316
B4 | inactive: -0.0134

molecular target: SARS-CoV-2 ORF9B; assay: as above
Protocol: as §1

Binder | yeast fitness gain
B1 | inactive: -0.0601
B2 | inactive: 0.0589
B3 | inactive: 0.0549
B4 | inactive: 0.0464

molecular target: SARS-CoV-2 ORF9Bwu (the 73-codon ORF); assay: as above
Protocol: as §1

Binder | yeast fitness gain
B1 | inactive: -0.118
B2 | inactive: -0.024
B3 | inactive: -0.0693
B4 | inactive: 0.0696

molecular target: SARS-CoV-2 S; assay: as above
Protocol: as §1

Binder | yeast fitness gain
B1 | inactive: 0.0903
B2 | inactive: 0.0733
B3 | inactive: -0.0131
B4 | inactive: -0.116

molecular target: SARS-CoV-2 N; assay: as above
Protocol: as §1

Binder | yeast fitness gain
B2 | inactive: -0.163

molecular target: SARS-CoV-2 ORF3A; assay: as above
Protocol: as §1

Binder | yeast fitness gain
B2 | inactive: -0.0764
B3 | inactive: 0.0341
B4 | inactive: -0.0503

molecular target: SARS-CoV-2 NSP14; assay: as above
Protocol: as §1

Binder | yeast fitness gain
B3 | inactive: 0.0588
B4 | inactive: 0.114

molecular target: SARS-CoV-2 NSP4; assay: as above
Protocol: as §1

Binder | yeast fitness gain
B4 | inactive: 0.0682

Reference: the supplement of paper PMC11741623
